“Also recorded” adds a separate entry of the source. Like-named read-outs stand apart in the source and are kept apart here.
Tests used:
CD36 [1] = biological target: T1, CD36 (Homo sapiens, UniProt P16671); test: Surface plasmon resonance (Biacore T200) affinity for human CD36; assay type: binding
Experimental: The affinity of ONA-0-v1, 1G04, and a commercial anti-CD36 antibody (JC63.1) for human CD36 was also measured by surface plasmon resonance (SPR) using a Biacore T200. 1G04 was analysed using a protein A capture surface, with a capture range of 100-150 RU and an antigen titration range of 3.3-333 nM. The mouse antibodies ONA-0-V1 and the commercial anti-CD36 antibody were analysed using an anti-mouse IgA capture surface, with a capture range of 160-180 RU and an antigen titration range of 3.3-333 nM. For each single analysis cycle a titration of five antigen concentrations were injected over the captured antibody and then the dissociation of the complex was measured. A double referencing method was employed in which data from the reference surfaces where no antibody was captured (fc 1 and 3 respectively) were subtracted from the antibody bound capture surface (fc 2 and 4). Blank injections of buffer were run for every antigen titration cycle and then subtracted from analyte injection cycles, to correct for small changes in the antibody capture surface density. All analysis was performed at 25° C., and the sample rack was kept at 6° C. during experimental runs. Each experiment was run at least three times with the mean binding constants generated from at least two independent assays reported. All analysis was performed in PBS-T running buffer at 40 μL/min.

[2] = biological target: T2, cells overexpressing human CD36 (Homo sapiens, UniProt P16671); test: FACS binding to cells overexpressing human CD36
T2 construct: expressed in transfected cells
T2 sequence (P16671 whole entry): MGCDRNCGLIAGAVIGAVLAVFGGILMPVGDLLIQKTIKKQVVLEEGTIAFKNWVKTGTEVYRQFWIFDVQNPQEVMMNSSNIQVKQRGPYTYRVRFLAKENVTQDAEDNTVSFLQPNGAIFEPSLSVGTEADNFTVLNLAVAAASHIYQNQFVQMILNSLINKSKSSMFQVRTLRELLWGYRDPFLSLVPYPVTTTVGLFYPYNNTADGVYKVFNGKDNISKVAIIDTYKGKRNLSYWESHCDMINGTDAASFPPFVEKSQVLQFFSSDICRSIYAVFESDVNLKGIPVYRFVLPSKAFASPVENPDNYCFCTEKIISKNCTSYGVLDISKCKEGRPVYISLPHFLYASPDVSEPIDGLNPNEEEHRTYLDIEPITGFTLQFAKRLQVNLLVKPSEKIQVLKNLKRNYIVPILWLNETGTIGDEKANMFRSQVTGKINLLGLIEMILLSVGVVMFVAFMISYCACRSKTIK
Experimental: For FACS analysis, cells were trypsinized, collected in a 15 mL tube and diluted in washing buffer (2% FBS in PBS). Cells were then centrifuged at 1500 rpm for 5 min at 4° C., supernatant was discarded, and cells were resuspended in fresh washing buffer. Anti-CD36 antibodies were either omitted (control wash buffer treatment) or serially diluted in washing buffer (dilution range up to 100 nM), and then added to the cells. Incubation was performed on ice for 1 hour. Cells were then centrifuged at 1500 rpm for 5 min at 4° C., supernatant was discarded, and cells were resuspended in fresh washing buffer. Finally, cells were incubated with a […] (BV421 Rat Anti-Mouse IgA, Becton Dickinson, reference 743293) diluted 1:100 in washing buffer, washed and analysed by FACS.

A549 cells = test: A549 tail-vein mouse model of metastatic lung cancer; assay type: in vivo
Experimental: Studies of the effects of the 1G04 anti-CD36 antibody on lung cancer were performed in NSG mice (immuno-deficient). The studies included only female mice. All mice were inoculated with commercially available A549-luc2 (ATCC) cancer cells, a modified version of A549 cells generated by stable transduction with a lentiviral vector expressing luciferase. A549 cells are cells derived from a lung carcinoma (i.e. from a lung cancer), and therefore were used as part of a mouse model of lung cancer. Prior to inoculation, the A549 cells were cultured in a humidified incubator at 37° C. with 5% CO2, and were grown in F-12K medium supplemented with 5 μg ml^−1 penicillin/streptomycin and 10% FBS (GIBCO).
For each mouse, 1×10^6 A549 cells were inoculated intravenously via tail vein injection. Each mouse was imaged after inoculation and one week later and lung metastasis was confirmed by luminescence prior to start of treatment. Treatment began 8 days after inoculation with the A549 cells. As detailed in FIG. 30B, inoculated mice were divided into one of two treatment groups: vehicle injection control (n=11) or 1G04 treatment (n=11). Antibody treatments were administered via intraperitoneal (i.p.) injection at a dose of 10 mg/kg three times per week, while control mice received an equal volume of vehicle on the same schedule. One day prior to the start of treatment, and once weekly after the start of treatment, all mice were imaged via IVIS. Mice were sacrificed at the end of the treatment period (day 61). Upon sacrifice, organs and tissues were collected for performance of necropsy and ex-vivo IVIS.

CD36 [3] = biological target: T1, CD36; test: Luminescence-based fatty acid uptake assay in SCC-25 cells expressing CD36; assay type: cell-based; set-up: host or cells: SCC-25 cells stably transduced with a retroviral vector expressing CD36 and a lentiviral luciferase vector; conditions: 10 ug/ml antibody
Experimental: To measure the ability of anti-CD36 antibodies to alter fatty-acid uptake driven by CD36, commercially available SCC-25 cells (ATCC) were modified by stable transduction with a retroviral vector expressing CD36 and a lentiviral vector expressing luciferase. These cells, derived from a squamous cell carcinoma of the tongue, were grown were grown in keratinocyte serum-free medium (KSFM) supplemented with 5 µg/ml penicillin/streptomycin, 0.025 mg/ml bovine pituitary extract and 0.2 μg/ml hEGF. Fatty acid uptake was evaluated using a commercially available bioluminescent-labelled long chain fatty acid analogue (SwissLumix) as a substrate. To perform the assay, cells were plated in 96-well plates and, starting the following day, were stimulated with 100 uM palmitic acid for 48 hours. Isotype control antibody or 1G04 were added at 10 ug/ml prior to palmitic stimulation and refreshed on the following days. To quantify uptake kinetics, substrate was added to plates after washing with PBSIX, and readings were taken over time using a Synergy HIM plate reader.

T1 sequence (P16671 whole entry): as above

B1: 1G04: chimeric ONA-0-v1 IgG1 LALA antibody; heavy chain SEQ ID NO: 21, light chain SEQ ID NO: 23 (antibody)
heavy: QVQLKQSGADLVRPGASVKLSCKASGYTFTDYYINWVKQRPGQGLEWIARIYPGSGNTYYNEKFKGKATLTAEKSSSTAYMQLSSLTSEDSAVYFCARGIGGGFGMDYWGQGTSVTVSS[skipping human IgG1 constant region with changes]
light: SIVMTQTPKFLLVSAGDRITITCKASQSVSDDVAWYQQKPGQSPKLLIYYASNRYTGVPDRFTGSGYGTDFTFTISTVQAEDLAVYFCQQDYSSPLTFGAGTKLEIKRTVAAPSVFIFPPSDEQLKSGTASVVCLLNNFYPREAKVQWKVDNALQSGNSQESVTEQDSKDSTYSLSSTLTLSKADYEKHKVYACEVTHQGLSSPVTKSFNRGEC
modifications: 1G04 heavy chain; 1G04 light chain; 1G06 light chain
B1 was tested, and the “comparison of SPR binding to human CD36” value (CD36 [1]; SPR analysis, in words) was “tightest binding”, the ka (CD36 [1]; SPR, 1-to-1 model, 25° C.) was 100000 M⁻¹ s⁻¹ and the kd (CD36 [1]; SPR, 1-to-1 model, 25° C.) was 0.000159 s⁻¹. It also gave a ka1 (CD36 [1]; SPR, 2-state model) of 157000 M⁻¹ s⁻¹, a ka2 (CD36 [1]; SPR, 2-state model) of 0.00131 s⁻¹ and a kd1 (CD36 [1]; SPR, 2-state model) of 0.00324 s⁻¹. For the same molecule, the kd2 (CD36 [1]; SPR, 2-state model) was 0.000164 s⁻¹, the ka2 (CD36 [1]; SPR, bivalent model) was 6.41E−02 1/RUs and the kd1 (CD36 [1]; SPR, bivalent model) was 0.000669 s⁻¹. The kd2 (CD36 [1]; SPR, bivalent model) was 0.0548 s⁻¹, the ka1 (CD36 [1]; SPR, bivalent model, first ka1 column) was 52300 M⁻¹ s⁻¹ and the Kd (CD36 [1]; SPR, bivalent model, read-out: KD1) was 15.6 nM. For the same molecule, the Kd (CD36 [1]; SPR, bivalent model, read-out: KD2) was 114 nM, the “binding to cells overexpressing human CD36 (FACS)” value ([2]; antibodies at 100 nM) was “bound equivalently” and the “binding to cells overexpressing human CD36 (FACS)” value ([2]; serial dilution up to 100 nM) was “specifically bound; also recorded: bound equivalently”. For the same molecule, the “whole-animal bioluminescence over time” value (A549 cells; 10 mg/kg i.p. three times per week) was “reduced the growth”, the “mean lung weight at endpoint” value (A549 cells; day 61) was 0.72 g and the “reduction of mean lung weight vs vehicle” value (A549 cells; day 61) was 20%. The “fatty acid uptake kinetics over time” value (CD36 [3]) was “blocked fatty acid uptake over time” and the “inhibition of fatty acid uptake relative to control cells” value (CD36 [3]; 256 seconds after addition of substrate, palmitic acid stimulated) was “approximately 17%”.
